Experimental data published in ChEMBL document CHEMBL4888484, “Replenishing the malaria drug discovery pipeline: Screening and hit evaluation of the MMV Hit Generation Library 1 (HGL1) against asexual blood stage Plasmodium falciparum ,using a nano luciferase reporter read-out” (2022).
Screen size: about 150,000 compounds; about 540 (0.36%) showed an effect of 50% or more. This is one part of the list.

Tested on: Plasmodium falciparum
Assay: Primary screen in NF54 nanoGlo assay, in single point, at 2uM, 72h; a lower Z score goes with more inhibition
Type: functional, Erythrocyte
Settings: timepoint 72 hour

SMILES	% Inhibition [%]	Z score	% Inhibition (2 µM) [%]
CC1CCN(Cc2nnnn2CC(=O)N(CC2CCC2)C[C@H]2CCCO2)CC1	-3	0.36	
CN(C)C(=O)C1CCN(C(=O)C2c3ccccc3Oc3ccccc32)CC1	1	-0.16	
Cc1noc([C@@H](C)NC(=O)CC(C)C)c1C(=O)O	27	-1.93	
COc1cccc2c3c(cnc12)C(=O)NCCN3	-13	1.47	
CCCC(=O)N[C@H]1CCCN(C(=O)Cn2cc(S(=O)(=O)N(CC)CC)ccc2=O)C1	-17	1.78	
COc1cccc(CC(=O)N[C@@H]2c3ccccc3C3(CCNCC3)[C@H]2O)c1	11	-1.48	
O=C(NCC1CCCO1)C1COC2(CCN(C(=O)c3cccc(Cl)c3)CC2)N1C(=O)c1ccco1 (configuration not stated)	-9	1.52	
CCn1c(=O)cc(C(C)C)c2ccc(OCC(=O)Nc3ccccc3F)cc21	-4	0.49	
Cc1ccc2c(c1)N(C(=O)C(=O)NC[C@H]1CCC(=O)N1)CC2	-9	0.76	
CC(C)(C)n1cnc(C(=O)N2Cc3ccc(Cl)cc3C2)n1	2	-0.31	
O=C(O)C1(n2cccn2)CCN(Cc2ccc3[nH]ccc3c2)CC1	-21	1.81	
CCC(=O)N1CCC[C@@](NCCc2ccccc2)(c2nnnn2C2CCCC2)C1	-14	1.9	
Cc1cnccc1CCNC(=O)N1CCOC[C@@H](C2CCC2)C1	-5	0.79	
CCS(=O)(=O)c1cc(Cl)cc(CNC(=O)[C@@H]2CCCCO2)c1	-12	1.48	
CCN1CCCC1CNS(=O)(=O)C(C)COC (configuration not stated)	-4	0.45	
Cc1ccccc1CNS(=O)(=O)c1ccc(-c2nnc(C3CCC3)o2)s1	-2	0.37	
Cc1cc(CN2CC[C@H](N(C)C)C2)c2ccc(C)c(C)c2n1	12	-1.56	
OCC#Cc1ccc(-c2c(-c3ccccc3)ncn2Cc2cccnc2)s1	3	-0.64	
CC1(CCNC(=O)NCC2(c3ccc(F)cc3F)CC2)OCCO1	-14	2.65	
COCC[C@]1(c2noc(-c3ccc(F)cc3)n2)CCCN(S(=O)(=O)c2cccnc2)C1	-8	1.3	
COc1ccc(-c2nc3cc(C)ccc3cc2CN2CCN3CCC[C@H]3C2)cc1	-11	1.93	

SMILES	% Inhibition [%]	Z score	% Inhibition (2 µM) [%]
Cc1ccc([C@@H]2CCCN2CC(=O)Nc2c(C)n[nH]c2C)s1	-12	1.68	
CC(C)[C@H](NC(=O)NCc1ccccc1)C(=O)N1CCC(O)CC1	-8	1.1	
O=C(c1n[nH]c2ccc(Cl)cc12)N1CCC(OC2CCC2)CC1	-11	1.74	
O=C1c2cccc3cccc(c23)C(=O)N1c1ccc2c(c1)oc1ccccc12	-7	0.88	
Cc1cc(N2CCC[C@@H]2CCc2ccccn2)nc(C)n1	-14	1.89	
CN(C/C=C/c1ccccc1)Cc1ccc(C(=O)N(C)C)o1	-10	1.39	
N#Cc1ccccc1CN1CC[C@@]2(CCCN(Cc3ccc(F)c(F)c3)C2=O)C1	-12	1.51	
Cc1ccc(C(=O)c2nocc2C(=O)c2cccnc2)cc1	1	-0.19	
COc1ccc(C(=O)N[C@@H]2CCCC[C@H]2NC(=O)C2CCCN(C(=O)c3cccc(F)c3)C2)cc1 (some centres not stated)	-6	0.59	
CCCN(CC(=O)N(C)C1CC1)CC(F)(F)F	-13	1.97	
COc1cccc(OC)c1CC(=O)Nc1ccccc1-c1ncc[nH]1	6	-0.79	
CNS(=O)(=O)N1CCC(C(=O)NC[C@H](c2cccnc2)C(C)C)CC1	-11	1.27	
CN(c1nccs1)S(=O)(=O)c1cccs1	-9	1.65	
Cc1ccc(OCCN(C)C(=O)NC[C@H]2CCCOC2)c(C)c1	-3	0.54	
O=C(c1ncoc1C1CC1)N1CCc2sccc2C1	4	-0.61	
CC(C)OCC(=O)N1CCC[C@@]2(CCC(=O)N(Cc3cccnc3)C2)C1	-7	0.86	
CCc1cc(C)c(C(=O)NC[C@H]2CCC[C@@H](CO)C2)o1	-19	2.23	
C[C@@H]1[C@H](N(C)CCO)CCN1C(=O)Nc1ccc(C(C)(C)C)nc1	-7	0.98	
Cc1cc(NC(=O)C2CC2c2ccccc2)no1 (configuration not stated)	-2	0.24	
C[C@H]1CCC[C@@H](NCCc2ccccc2)CCC/C=C/c2cc(O)cc(O)c2C(=O)O1	73	-6.47	
Cc1cccc(O[C@H]2CCN(C(=O)CC(F)(F)F)C2)n1	-10	1.97	

SMILES	% Inhibition [%]	Z score	% Inhibition (2 µM) [%]
COCCN1C(=O)[C@@H]2C(Cc3ccc(O)cc3)NC3(C(=O)Nc4c(C)cc(C)cc43)[C@@H]2C1=O (some centres not stated)	-3	0.41	
CN(CCN[C@H](c1ccccc1)c1c[nH]cn1)C(=O)OC(C)(C)C	19	-2.38	
CNc1nc(NCCCOCC2CC2)nc(NCCCOCC2CC2)n1	0	0.01	
Cc1c[nH]c(CN(C)CCC(=O)Nc2nccs2)n1	-8	1	
CCc1nc([C@@H](O)CC(C)C)n(-c2ccncc2)n1	-7	1.34	
CCN1CCN(C(=O)c2cnc(-c3ccc(OC)cc3)nc2Oc2ccc(OC)cc2)CC1	-10	1.11	
COc1cccc(CN(Cc2nc(C(=O)NCc3ccco3)co2)[C@@H](C)C(C)C)c1	3	-0.43	
COc1ccc2nc(C3CC3)cc(C(=O)Nc3c(C)n(C)n(-c4ccccc4)c3=O)c2c1	8	-0.95	
CC(C)n1ccnc1CNc1ccc(C(=O)NC2CCOCC2)cc1	9	-1.31	
Cc1ccc(C(=O)N2CCS(=O)(=O)C[C@H]2C2CCC2)c(Cl)c1	-3	0.48	
COc1ccc(CNC(=O)c2cnn(-c3nccc(-c4cccs4)n3)c2C)cc1	-3	0.48	
O=S(=O)(c1ccc(F)cc1)N1CCN(Cc2csnn2)CC1	-7	0.6	
C=CCCO[C@@H](C)C(=O)N1CCC(=O)NCCN(c2nccn3nnnc23)CC1	-12	2.26	
c1ccc2c(c1)Cc1cc3ccccc3nc1-2	-3	0.53	
Cc1cc(C)c2c(C)c(C(=O)Nc3ccc(S(=O)(=O)Nc4nccc(C)n4)cc3)oc2c1	-14	1.81	
CCc1ccc2c(c1)c(-c1ccc(Cl)cc1)c(C(=O)NCc1ccc(OC)cc1)n2C	7	-0.88	
Cc1cccc(C(=O)Oc2ccc(-n3ccnc3)cc2)c1	44	-5.69	
Cc1ccc2cc(CN(Cc3cccc(O)c3)C3CC3)c(=O)[nH]c2c1	-10	1.8	
O=C(CCc1ccco1)NCc1ccco1	-10	1.09	
CCCN(CCC)C(=O)c1ccccc1NS(=O)(=O)CCC	-4	0.51	
CNS(=O)(=O)c1ccc(-c2nccn2[C@@H](C)c2nncn2C)cc1	8	-0.99	

SMILES	% Inhibition [%]	Z score	% Inhibition (2 µM) [%]
CCCOc1ccc2nc(NC(=O)c3sc(COc4cccc(C)c4)nc3C)sc2c1	-23	2.02	
COCCN(Cc1ccco1)c1nc2ccccc2c2nc(C)nn12	-2	0.26	
Cc1ccc(S(=O)(=O)Nc2cc(C(=O)O)ccc2N(C)CCc2c(C)noc2C)c(C)c1	-13	1.29	
Cc1nc(N)sc1C(=O)OC(C)C	-1	0.19	
O=c1cc2n(c(=O)[nH]1)CC(c1ccccc1)=NN2			-4
O=C(CNC1CCCCC1)Nc1nc(-c2ccccc2)cs1	-10	1.19	
Cc1cc(N)ccc1-c1nc2cc(F)ccc2n1C1CC1	-2	0.4	
CO[C@@H](C)CS(=O)(=O)Nc1nonc1NC(=O)C(C)(C)C	-7	1.09	
c1ccn2c([C@H]3CCCN(Cc4ccoc4)C3)nnc2c1	-14	2.72	
CCc1ccc(CN(CC)Cc2cnn(CC)c2)s1	8	-1.1	
CCn1nc(C)c(-c2cccc(C(=O)NCCCN3CCCC3=O)c2)c1C	2	-0.32	
CN1CCN(C(=O)Cn2ccc(NCC3(C)CCOCC3)n2)CC1	-1	0.22	
Cc1ncc(C(=O)N[C@@H](C)c2nc(CC(C)C)no2)c(O)n1	-1	0.19	
Cc1nc(-c2ccc(-c3ccn[nH]3)cc2)n(-c2ccccn2)n1	7	-0.95	
CC[C@@](C)(C(=O)NC1CCCC1)N(C(=O)CNC(=O)c1ccccc1)c1c(C)n(C)n(-c2ccccc2)c1=O	-1	0.2	
Cc1noc(C)c1C[C@H](C)C(=O)N(C)C	-5	0.82	
Cc1cc(=O)c(C(=O)N[C@@H](CC(C)C)C(N)=O)c(C)[nH]1	-2	0.31	
O=C1C[C@@H](C(=O)N2CCCCC2)CCN1	1	-0.06	
O=C(NCCn1cncn1)c1cccc(F)c1F	-6	1.07	
Cc1cc(C(=O)OCCNc2cccnn2)ccc1F	-5	0.45	
CC[C@H](O)Cn1cc(-c2nc(-c3cc(C)ccn3)no2)nn1	-38	4.04	
